{"source": "PubChem BioAssay AID1347073", "about": "(National Center for Advancing Translational Sciences (NCATS), 2019)", "note": "The campaign covered roughly 45,000 compounds. About 200 (0.44%) were called active. The inconclusive results got no clear call from the source; some entries with a clear call stand among them for comparison. Calls follow the shape of the dose curve; as a rule, active = well fitted activation curve with a large enough effect; inconclusive = small, poorly fitted or top-dose-only effect; inactive = no such curve, though single readings can be large or run the other way. A potency beside an inconclusive call is a rough fit, not a confirmed value. Potency is read from the fitted curve at half-maximal effect; tags tell the direction and shape of the fitted curve."}
{"assay": "qHTS of TDP-43 Inhibitors: NCGC Sytravon Library Screen; also: nearly all actives have a fitted effect of over 55% in size", "conditions": "yeast TDP-43 toxicity rescue, BacTiter-Glo growth, 24 h; series mostly up to 46.1 µM", "description": "The goal of this project is to identify new chemical probes capable of reversing the toxicity associated with TDP-43 which is associated with frontotemporal lobar degeneration and amyotrophic lateral sclerosis. These compounds will provide a complementary approach to deciphering the tangled mechanisms of toxicity and protection that we have uncovered through genome-wide genetic screens and are beginning to uncover in a large-scale proteomics analysis with mass spectroscopy. To this end, a miniaturized assay was developed to be screened against the Molecular Libraries Small Molecule Repository (MLSMR) to discover TDP-43 inhibitors. Please note that in the set-up this yeast-based assay compounds that inhibit as TDP-43, have a read-out as activators. NIH Chemical Genomics Center [NCGC] NIH Molecular Libraries Probe Centers Network [MLPCN] Assay Submitter (PI): Susan Lindquist, Whitehead Institute/MIT MLPCN Grant: R21 NS060957\nDispense 2.5 microL yeast galactose medium per 1536-well plate, pin compound, dispense 2.5 microL TDP-43 expressing yeast in galactose medium at OD600=0.02 (pregrown in raffinose medium to mid-log phase) per well, incubate for 24 hr at 30 deg C, and cell growth will be measured using 5 microL of Bactiter/Glo reagent to entire plate and read using Luminescence Protocol in ViewLux."}
{"smiles": "COc1ccc(Br)c(C(=O)OCC(=O)N2CCc3ccccc32)c1", "Potency": "inconclusive: 10 µM [activator, partial curve, poor fit]"}
{"smiles": "O=C(c1ccc(N2CCOCC2)c([N+](=O)[O-])c1)N1CCN(c2ccccc2F)CC1", "Potency": "inconclusive: 15.8 µM [activator, single point]"}
{"smiles": "Cc1ccc(NC(=O)CCCN2C(=O)COc3ccc(C)cc32)c(Cl)c1", "Potency": "inactive"}
{"smiles": "N#Cc1ccc(C(=O)NC(=S)N2CCN(C=O)CC2)cc1", "Potency": "inactive"}
{"smiles": "O=C(COc1ccccc1Cl)Nc1ccc2c(c1)OCCO2", "Potency": "inconclusive: 2.82 µM [activator, single point]"}
{"smiles": "Cc1cc(N2C(=O)C3CCC(c4ccccc4)CC3C2=O)no1", "note": "(stereo not drawn)", "Potency": "inconclusive: 8.91 µM [activator, partial curve]"}
{"smiles": "CCc1ccccc1NS(=O)(=O)c1ccc(SC)cc1", "Potency": "inconclusive: 25.1 µM [activator, partial curve, poor fit]"}
{"smiles": "CC1CCN(c2ccc(C(=O)NCc3ccc4c(c3)OCO4)cc2[N+](=O)[O-])CC1", "Potency": "inconclusive: 12.6 µM [activator, partial curve, poor fit]"}
{"smiles": "CCN(C(=O)c1cc2c(=O)[nH]c3ccc(C)cc3c2s1)c1ccc(OC)cc1", "Potency": "inactive"}
{"smiles": "O=C(CCSCc1cccc(Cl)c1)NCCc1ccccc1", "Potency": "inconclusive: 20 µM [activator, single point]"}
{"smiles": "O=C(CSc1nc2ccc(NC(=O)c3ccccc3C(=O)O)cc2s1)Nc1ccc(F)c([N+](=O)[O-])c1", "Potency": "inconclusive: 15.8 µM [activator, partial curve, poor fit]"}
{"smiles": "Cn1c(CC(=O)NC(C)(C)CO)c(Sc2ccccc2)c2ccccc21", "Potency": "inconclusive: 12.6 µM [activator, single point]"}
{"smiles": "CC(C)n1nccc1NC(=O)COC(=O)c1ccc(NC(N)=O)cc1", "Potency": "inactive"}
{"smiles": "CCOC(=O)C1(CCCc2ccccc2)CCN(C(=O)CN2C(=O)CSC2=O)CC1", "Potency": "inconclusive: 14.1 µM [activator, partial curve, poor fit]"}
{"smiles": "Cc1ccc(COc2ccc3oc(-c4ccccc4)c(C(=O)O)c3c2)cc1", "Potency": "inactive"}
{"smiles": "Clc1ccc(-c2csc3ncnc(Cl)c23)cc1", "Potency": "inconclusive: 10 µM [activator, partial curve, poor fit]"}
{"smiles": "COc1cc(/C=N/O)ccc1OCc1ccccc1Cl", "Potency": "inconclusive: 11.2 µM [activator, partial curve, poor fit]"}
{"smiles": "CCc1ccc(NC(=O)CSc2nc(CSc3ccc(C)cc3)cc(=O)[nH]2)cc1", "Potency": "inconclusive: 35.5 µM [activator, single point]"}
